This note sets out measurements from article PMC4336329 (PLoS ONE, 2015).

In all, about 310,000 compounds went through this assay and about 14,000 (4.5%) showed an effect of 50% or more. The effect is printed as a negative number. This is one part of the list.
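Also: peak tail current of the secondary pulse compared with the same well before compound.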

The assay deals with human ether-à-go-go-related gene (hERG) potassium channel (human, UniProt Q12809). The experiment in a line: primary screen, population patch clamp on CHO cells stably expressing hERG.
human ether-à-go-go-related gene (hERG) potassium channel, sequence (Q12809 whole entry, looked up): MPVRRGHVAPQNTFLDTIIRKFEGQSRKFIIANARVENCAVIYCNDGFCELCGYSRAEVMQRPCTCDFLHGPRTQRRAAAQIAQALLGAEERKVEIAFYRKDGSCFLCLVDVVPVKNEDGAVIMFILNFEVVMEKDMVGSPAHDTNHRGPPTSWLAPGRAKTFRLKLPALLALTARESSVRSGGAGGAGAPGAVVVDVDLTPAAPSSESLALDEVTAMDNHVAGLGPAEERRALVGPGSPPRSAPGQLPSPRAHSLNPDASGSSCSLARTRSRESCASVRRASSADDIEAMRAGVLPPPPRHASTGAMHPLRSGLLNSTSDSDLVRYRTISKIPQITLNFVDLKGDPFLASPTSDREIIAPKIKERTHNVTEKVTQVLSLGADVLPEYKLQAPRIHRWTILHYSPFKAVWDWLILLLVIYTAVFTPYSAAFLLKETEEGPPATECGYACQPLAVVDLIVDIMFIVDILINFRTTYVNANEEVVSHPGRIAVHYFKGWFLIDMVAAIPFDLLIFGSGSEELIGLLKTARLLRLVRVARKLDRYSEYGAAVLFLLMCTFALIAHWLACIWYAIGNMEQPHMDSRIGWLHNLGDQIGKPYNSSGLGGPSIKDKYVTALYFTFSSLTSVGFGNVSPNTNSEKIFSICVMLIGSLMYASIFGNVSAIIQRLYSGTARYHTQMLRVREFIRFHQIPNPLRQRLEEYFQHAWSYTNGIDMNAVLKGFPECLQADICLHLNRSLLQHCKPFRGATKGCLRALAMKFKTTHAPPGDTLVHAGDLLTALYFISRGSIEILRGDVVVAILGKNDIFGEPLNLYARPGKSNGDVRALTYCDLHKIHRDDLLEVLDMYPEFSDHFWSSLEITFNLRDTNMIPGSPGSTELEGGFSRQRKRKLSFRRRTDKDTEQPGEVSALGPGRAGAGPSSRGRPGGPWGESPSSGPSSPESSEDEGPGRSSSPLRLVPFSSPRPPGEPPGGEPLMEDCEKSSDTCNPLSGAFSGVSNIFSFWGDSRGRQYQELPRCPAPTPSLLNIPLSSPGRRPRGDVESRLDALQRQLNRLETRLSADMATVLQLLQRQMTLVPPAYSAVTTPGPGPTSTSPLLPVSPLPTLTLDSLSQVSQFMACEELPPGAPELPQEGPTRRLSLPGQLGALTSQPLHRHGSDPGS
With `COc1ccc(-c2noc(COc3ccc4c(c3)OCO4)n2)cc1`, the “hERG current change (%, negative = inhibition) at 10uM” value was 10.1%.

Take `CC1CCN(CCCCOc2cccc(C(C)C)c2)CC1.O=C(O)C(=O)O`: the “hERG current change (%, negative = inhibition) at 10uM” value is -71.7%.

For the molecule `O=C(OCC#CCSc1nc2ccccc2o1)c1cc2ccccc2o1`, the “hERG current change (%, negative = inhibition) at 10uM” value came to 7.37%.

Turning to `OCC1OC(n2nnc3ccccc32)C(O)C(O)C1O` (stereo not shown), the “hERG current change (%, negative = inhibition) at 10uM” value worked out at 20.8%.

Regarding `O=C(CSCc1c(Cl)cccc1Cl)NCc1ccccn1`, the “hERG current change (%, negative = inhibition) at 10uM” value is on record as -1.29%.

As for `CCN(Cc1ccccc1)C(=O)c1cccc(S(=O)(=O)N2CCN(c3ccc(F)cc3)CC2)c1`, the “hERG current change (%, negative = inhibition) at 10uM” value is -47.2%.

Turning to `Clc1ccc(Cc2noc(CN3CCN(c4ccccc4)CC3)n2)c(Cl)c1`, the “hERG current change (%, negative = inhibition) at 10uM” value is -3.94%.

Take `Cc1ccc2[nH]c(=O)c(CN(CCCO)S(=O)(=O)c3c(C)ccc4nsnc34)cc2c1`: the “hERG current change (%, negative = inhibition) at 10uM” value is recorded as -16%.

For the molecule `O=C(/C=C/c1ccc[nH]1)c1ccccc1`, the “hERG current change (%, negative = inhibition) at 10uM” value is -41.6%.

For the molecule `CC(=O)c1cccc(NC(=O)CN(C2CCCCC2)S(C)(=O)=O)c1`, the “hERG current change (%, negative = inhibition) at 10uM” value was 3.66%.

As to `CSc1nnc2c3ccccc3n(CCc3ccccc3)c2n1`, the “hERG current change (%, negative = inhibition) at 10uM” value is recorded as -12.1%.

Consider `O=C(NC1=NCCS1)C1COc2ccccc2O1` (stereo not shown), for which the “hERG current change (%, negative = inhibition) at 10uM” value is -6.51%.

As for `COc1cccc(CN2CC(C(=O)NCCc3ccc(C)s3)CCC2=O)c1` (stereo not shown), the “hERG current change (%, negative = inhibition) at 10uM” value is given as -26.5%.

`CCc1ccc(NC(=S)N(Cc2cccc(Br)c2)CC2CCC(C(=O)O)CC2)cc1` (stereo not shown): the “hERG current change (%, negative = inhibition) at 10uM” value is recorded as 23.9%.

Take `Cn1nc(C(=O)NC2CCCN(Cc3ccccc3F)C2)c2ccccc2c1=O` (stereo not shown): the “hERG current change (%, negative = inhibition) at 10uM” value is reported as -41.6%.

Turning to `CCc1cccc(NC(=O)CN2C(=O)NC3(CCCCCCC3)C2=O)c1`, the “hERG current change (%, negative = inhibition) at 10uM” value is recorded as 5.33%.

Consider `COc1ccc(CC(C)NCCC(c2ccccc2)c2ccccc2)cc1` (stereo not shown), for which the “hERG current change (%, negative = inhibition) at 10uM” value is on record as -71.5%.

For the molecule `O=C1C2C3C=CC(C2C(=O)N1C1CCCCC1)C1C(=O)N(C2CCCCC2)C(=O)C31` (stereo not shown), the “hERG current change (%, negative = inhibition) at 10uM” value is recorded as 14.7%.

With `CC(OC(=O)c1ccccc1C(=O)N(C)C1CCCCC1)C(=O)NC1(C#N)CCCCC1` (stereo not shown), the “hERG current change (%, negative = inhibition) at 10uM” value is reported as -21.4%.

`CC(=O)O[C@H]1[C@H](C)OC=C[C@@H]1OC(C)=O`: the “hERG current change (%, negative = inhibition) at 10uM” value came to 9.58%.

As for `NC(=O)CSc1nccn1Cc1ccccc1`, the “hERG current change (%, negative = inhibition) at 10uM” value is listed as 7.57%.

For the molecule `COC(=O)c1cc(NC2c3ncccc3C(=O)N2Cc2ccccc2)cc(C(=O)OC)c1` (stereo not shown), the “hERG current change (%, negative = inhibition) at 10uM” value is listed as -9.7%.

`CNS(=O)(=O)c1ccc(N=Cc2c(O)n(-c3cccc(C)c3)c(=O)[nH]c2=O)cc1`: the “hERG current change (%, negative = inhibition) at 10uM” value came to 14.2%.

Turning to `CCOC(=O)c1ccc(NC(=O)N2CCN(c3ccccn3)CC2)cc1`, the “hERG current change (%, negative = inhibition) at 10uM” value was -25.7%.

In the case of `O=C(CN1CCOCC1)Nc1ccc([N+](=O)[O-])cc1`, the “hERG current change (%, negative = inhibition) at 10uM” value was determined as 0.978%.

As for `NC(=O)COC(=O)CN1C(=O)C2CCCCC2C1=O` (stereo not shown), the “hERG current change (%, negative = inhibition) at 10uM” value turned out to be 7.64%.

With `CCOC(=O)c1cccnc1SC(CC)C(=O)N1CCOCC1` (stereo not shown), the “hERG current change (%, negative = inhibition) at 10uM” value was -18.4%.

Regarding `O=C(NN1CC(C(=O)OCc2ccc(Br)cc2)CC1=O)c1ccccc1` (stereo not shown), the “hERG current change (%, negative = inhibition) at 10uM” value is listed as -21.2%.

Take `Cc1c(C(=O)c2ccc(F)cc2)c2ccccn2c1CCc1ccccn1`: the “hERG current change (%, negative = inhibition) at 10uM” value is on record as -7.16%.

On to `CC(=O)c1ccc(N2CCN(c3ncc(C(F)(F)F)cc3Cl)CC2)cc1`, for which the “hERG current change (%, negative = inhibition) at 10uM” value was determined as 15.2%.

With `CC1CC(C)(C)CC2(C1)NC(=S)N(c1ccccc1)N2` (stereo not shown), the “hERG current change (%, negative = inhibition) at 10uM” value amounted to 17.5%.

For the molecule `CCCCN1C(=O)C2C(c3ccc(OC)cc3O)NC(CC(C)C)(C(=O)O)C2C1=O` (stereo not shown), the “hERG current change (%, negative = inhibition) at 10uM” value was 2.83%.

In the case of `COc1ccc(/C=N/c2c(-c3ccc(OC)cc3)nc3n2CCS3)cc1`, the “hERG current change (%, negative = inhibition) at 10uM” value is 8.99%.

For `O=C1CCc2cc(S(=O)(=O)N3CCC(C(=O)NCc4ccccc4Cl)CC3)ccc2N1`, the “hERG current change (%, negative = inhibition) at 10uM” value came out at 4.83%.

Turning to `CC1(c2nnc(Cc3ccccc3)o2)CC(c2cccc([N+](=O)[O-])c2)=NO1` (stereo not shown), the “hERG current change (%, negative = inhibition) at 10uM” value is on record as -7.45%.

As to `Nc1nccc(-c2ccc(-n3cccc3)cc2)n1`, the “hERG current change (%, negative = inhibition) at 10uM” value amounted to 13.5%.

For the molecule `COc1ccc(-c2noc3c2-c2nc(-c4cccc(C)c4)sc2CC3)cc1`, the “hERG current change (%, negative = inhibition) at 10uM” value worked out at 7.57%.

Consider `COC(=O)CN1C(=O)C(C)(C)Oc2ccc(C(=O)Nc3cccc(OC)c3)cc21`, for which the “hERG current change (%, negative = inhibition) at 10uM” value is -1.34%.

`Oc1ccc(-c2nc3c4c(ncn3n2)-c2ccccc2CC42CCCC2)cc1`: the “hERG current change (%, negative = inhibition) at 10uM” value is on record as 6.37%.

For the molecule `O=S(=O)(c1cccs1)N1CCN(CCOc2ccc(Cl)cc2)CC1`, the “hERG current change (%, negative = inhibition) at 10uM” value was -34.4%.

Turning to `Cc1cccc(NC(=O)CN2CCN(C(=O)CNC(=O)Cc3cccc4ccccc34)CC2)c1C`, the “hERG current change (%, negative = inhibition) at 10uM” value is on record as -57.4%.

As for `CCOC(=O)c1cc(C)n(Cc2cccc(OC)c2OC)c1C`, the “hERG current change (%, negative = inhibition) at 10uM” value was -14.1%.

In the case of `CCOCC(=O)Nc1sc2c(c1C(=O)OCC)CCCC2`, the “hERG current change (%, negative = inhibition) at 10uM” value was -17.6%.
